From the supplement of paper PMC4604168 (melanoma cell lines)
The list shows a part of the results. Most values come without repeats; read them as rough.

Legend:
Test in all cases: cell count relative to DMSO control; melanoma cells; higher = more viable cells
Details in all cases: library dose: standard library concentration; 72 h
501Mel = system: 501Mel
A101D = system: A101D
A2058 = system: A2058
A375 = system: A375
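Note: cells treated in 1,536-well plates, then fixed and DAPI-stained, with nuclei counted from automated high-throughput microscope images.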

Row | SMILES | cell count (501Mel) | cell count (A101D) | cell count (A2058) | cell count (A375)
1 | CS(=O)(=O)CCNCc1ccc(-c2ccc3ncnc(Nc4ccc(OCc5cccc(F)c5)c(Cl)c4)c3c2)o1 [lapatinib] + c1cc(-c2cnn3cc(-c4ccc(OCCN5CCCCC5)cc4)cnc23)ccn1 [Dorsomorphin] (first compound 4 µM, partner dose 2 µM) | 40.6% | 44.8% | 72.8% | 92.6%
2 | CS(=O)(=O)CCNCc1ccc(-c2ccc3ncnc(Nc4ccc(OCc5cccc(F)c5)c(Cl)c4)c3c2)o1 [lapatinib] + COc1ccc2c(c1)CCC1C2CCC2(C)C(NCCCCCCN3C(=O)C=CC3=O)CCC12 [U73122] (first compound 4 µM, partner dose 2 µM) | 56.3% | 40.6% | 54.5% | 92%
3 | CNC(=O)c1cc(Oc2ccc(NC(=O)Nc3ccc(Cl)c(C(F)(F)F)c3)cc2)ccn1 [sorafenib] + COc1cc(N2CCC(N3CCN(C)CC3)CC2)ccc1Nc1ncc(Cl)c(Nc2ccccc2S(=O)(=O)C(C)C)n1 [NVP-TAE684] (first compound 2 µM, partner dose 0.4 µM) | 98.9% | 87.3% | 76.8% | 109%
4 | C[C@@H](Oc1cc(-c2cnn(C3CCNCC3)c2)cnc1N)c1c(Cl)ccc(F)c1Cl [Crizotinib] + Cn1cc(/C=C2\C(=O)Nc3cccnc32)c2ccccc21 [GW441756] (first compound 1 µM, partner dose 2 µM) | 74.8% | 117% | 115% | 140%
5 | CS(=O)(=O)CCNCc1ccc(-c2ccc3ncnc(Nc4ccc(OCc5cccc(F)c5)c(Cl)c4)c3c2)o1 [lapatinib] + COc1ccc(-c2ccc3c(N4CCOCC4)nc(N4C[C@@H](C)O[C@@H](C)C4)nc3n2)cc1CO [KU0063794] (first compound 4 µM, partner dose 0.1 µM) | 64% | 92% | 95.8% | 122%
6 | CN1CCN(c2ccc3nc(-c4c(N)c5c(F)cccc5[nH]c4=O)[nH]c3c2)CC1 [Dovitinib] + COc1ccc(-c2ccc3c(N4CCOCC4)nc(N4C[C@@H](C)O[C@@H](C)C4)nc3n2)cc1CO [KU0063794] (first compound 0.5 µM, partner dose 0.1 µM) | 98.7% | 95.3% | 97.2% | 114%
7 | CN1CCN(c2ccc3nc(-c4c(N)c5c(F)cccc5[nH]c4=O)[nH]c3c2)CC1 [Dovitinib] + N#Cc1c(O)c2c(-c3ccc(-c4ccccc4O)cc3)csc2[nH]c1=O [A769662] (first compound 0.5 µM, partner dose 10 µM) | 95% | 64.6% | 30.5% | 77.8%
8 | C[C@@H](Oc1cc(-c2cnn(C3CCNCC3)c2)cnc1N)c1c(Cl)ccc(F)c1Cl [Crizotinib] + O=C1NC(=O)/C(=C/c2ccc(-c3ccc(F)cc3O)o2)S1 [AS252424] (first compound 1 µM, partner dose 5 µM) | 67.5% | 103% | 83.3% | 124%
9 | CN1CCN(c2ccc3nc(-c4c(N)c5c(F)cccc5[nH]c4=O)[nH]c3c2)CC1 [Dovitinib] + COc1ccc(COc2ccc(Cc3cnc(N)nc3N)cc2OC)cc1 [GW2580] (first compound 0.5 µM, partner dose 5 µM) | 38% | 73% | 41.9% | 72.9%
10 | CNC(=O)c1cc(Oc2ccc(NC(=O)Nc3ccc(Cl)c(C(F)(F)F)c3)cc2)ccn1 [sorafenib] + CCN(CC)CCCCNc1ncc2cc(-c3cc(OC)cc(OC)c3)c(NC(=O)NC(C)(C)C)nc2n1 [PD173074] (first compound 2 µM, partner dose 0.5 µM) | 114% | 113% | 97.5% | 107%
11 | C=CCNC1=C2C[C@@H](C)C[C@H](OC)[C@H](O)[C@@H](C)/C=C(\C)[C@H](OC(N)=O)[C@@H](OC)/C=C\C=C(/C)C(=O)NC(=CC1=O)C2=O [Tanespimycin] + Oc1nc(-c2ccc(C(F)(F)F)cc2)nc2c1CSCC2 [XAV939] (first compound 0.01 µM, partner dose 10 µM) | 65.4% | 68.3% | 71.8% | 91.7%
12 | C=CCNC1=C2C[C@@H](C)C[C@H](OC)[C@H](O)[C@@H](C)/C=C(\C)[C@H](OC(N)=O)[C@@H](OC)/C=C\C=C(/C)C(=O)NC(=CC1=O)C2=O [Tanespimycin] + COC(=O)c1sccc1S(=O)(=O)Nc1ccc(Nc2ccccc2)cc1OC [GSK0660] (first compound 0.01 µM, partner dose 5 µM) | 95% | 90.5% | 96.8% | 90.9%
13 | CN1CCN(c2ccc3nc(-c4c(N)c5c(F)cccc5[nH]c4=O)[nH]c3c2)CC1 [Dovitinib] + O=C1NC(=O)/C(=C/c2ccc(-c3ccc(F)cc3O)o2)S1 [AS252424] (first compound 0.5 µM, partner dose 5 µM) | 52.2% | 58.6% | 28.3% | 70.6%
14 | CNC(=O)c1cc(Oc2ccc(NC(=O)Nc3ccc(Cl)c(C(F)(F)F)c3)cc2)ccn1 [sorafenib] + COc1ccc(-c2ccc3c(N4CCOCC4)nc(N4C[C@@H](C)O[C@@H](C)C4)nc3n2)cc1CO [KU0063794] (first compound 2 µM, partner dose 0.1 µM) | 61.7% | 69.3% | 87.9% | 93.6%
15 | C[C@@H](Oc1cc(-c2cnn(C3CCNCC3)c2)cnc1N)c1c(Cl)ccc(F)c1Cl [Crizotinib] + COc1cc2ncnc(Nc3ccc(Oc4ccccc4)cc3)c2cc1OC [SrcI1] (first compound 1 µM, partner dose 10 µM) | 83.4% | 82.7% | 88.5% | 121%
16 | CNC(=O)c1cc(Oc2ccc(NC(=O)Nc3ccc(Cl)c(C(F)(F)F)c3)cc2)ccn1 [sorafenib] + N#Cc1c(O)c2c(-c3ccc(-c4ccccc4O)cc3)csc2[nH]c1=O [A769662] (first compound 2 µM, partner dose 10 µM) | 83.6% | 100% | 92.8% | 109%

Row | SMILES | cell count (501Mel) | cell count (A101D) | cell count (A2058) | cell count (A375)
17 | C=CCNC1=C2C[C@@H](C)C[C@H](OC)[C@H](O)[C@@H](C)/C=C(\C)[C@H](OC(N)=O)[C@@H](OC)/C=C\C=C(/C)C(=O)NC(=CC1=O)C2=O [Tanespimycin] + O=S(=O)(c1ccccc1)N(CC(F)(F)F)c1ccc(C(O)(C(F)(F)F)C(F)(F)F)cc1 [T0901317] (first compound 0.01 µM, partner dose 7 µM) | 69.3% | 69.9% | 97.2% | 88.7%
18 | CS(=O)(=O)CCNCc1ccc(-c2ccc3ncnc(Nc4ccc(OCc5cccc(F)c5)c(Cl)c4)c3c2)o1 [lapatinib] + COc1cc(N2CCC(N3CCN(C)CC3)CC2)ccc1Nc1ncc(Cl)c(Nc2ccccc2S(=O)(=O)C(C)C)n1 [NVP-TAE684] (first compound 4 µM, partner dose 0.4 µM) | 46% | 66.1% | 34.1% | 86.7%
19 | CNC(=O)c1cc(Oc2ccc(NC(=O)Nc3ccc(Cl)c(C(F)(F)F)c3)cc2)ccn1 [sorafenib] + COc1ccc2c(c1)CCC1C2CCC2(C)C(NCCCCCCN3C(=O)C=CC3=O)CCC12 [U73122] (first compound 2 µM, partner dose 2 µM) | 94.7% | 63.6% | 70.9% | 69.2%
20 | C=CCNC1=C2C[C@@H](C)C[C@H](OC)[C@H](O)[C@@H](C)/C=C(\C)[C@H](OC(N)=O)[C@@H](OC)/C=C\C=C(/C)C(=O)NC(=CC1=O)C2=O [Tanespimycin] + CC(C)CCN1c2nc(Nc3cc(F)c(O)c(F)c3)ncc2N(C)C(=O)C1C [BID1870] (first compound 0.01 µM, partner dose 1 µM) | 55.9% | 44.7% | 82.2% | 107%
21 | C[C@@H](Oc1cc(-c2cnn(C3CCNCC3)c2)cnc1N)c1c(Cl)ccc(F)c1Cl [Crizotinib] + O=C(O)C(=O)Nc1sc2c(c1C(=O)O)CCNC2 [TCS401] (first compound 1 µM, partner dose 8.33333 µM) | 89.2% | 85.7% | 84.1% | 160%
22 | CS(=O)(=O)CCNCc1ccc(-c2ccc3ncnc(Nc4ccc(OCc5cccc(F)c5)c(Cl)c4)c3c2)o1 [lapatinib] + Oc1cc(-c2nc(-c3ccccc3)[nH]c2-c2ccncc2)ccc1Cl [L779450] (first compound 4 µM, partner dose 1 µM) | 40.3% | 74.1% | 80.5% | 90.5%
23 | C=CCNC1=C2C[C@@H](C)C[C@H](OC)[C@H](O)[C@@H](C)/C=C(\C)[C@H](OC(N)=O)[C@@H](OC)/C=C\C=C(/C)C(=O)NC(=CC1=O)C2=O [Tanespimycin] + O=C1NC(=O)/C(=C/c2ccc(-c3ccc(F)cc3O)o2)S1 [AS252424] (first compound 0.01 µM, partner dose 5 µM) | 71.2% | 97.5% | 104% | 112%
24 | CNC(=O)c1cc(Oc2ccc(NC(=O)Nc3ccc(Cl)c(C(F)(F)F)c3)cc2)ccn1 [sorafenib] + Oc1nc(-c2ccc(C(F)(F)F)cc2)nc2c1CSCC2 [XAV939] (first compound 2 µM, partner dose 10 µM) | 92.5% | 86.1% | 73.8% | 103%
25 | CNC(=O)c1cc(Oc2ccc(NC(=O)Nc3ccc(Cl)c(C(F)(F)F)c3)cc2)ccn1 [sorafenib] + Cn1cc(/C=C2\C(=O)Nc3cccnc32)c2ccccc21 [GW441756] (first compound 2 µM, partner dose 2 µM) | 86.7% | 100% | 98.6% | 98.6%
26 | C[C@@H](Oc1cc(-c2cnn(C3CCNCC3)c2)cnc1N)c1c(Cl)ccc(F)c1Cl [Crizotinib] + COc1ccc2c(c1)CCC1C2CCC2(C)C(NCCCCCCN3C(=O)C=CC3=O)CCC12 [U73122] (first compound 1 µM, partner dose 2 µM) | 123% | 79.4% | 84.4% | 106%
27 | C[C@@H](Oc1cc(-c2cnn(C3CCNCC3)c2)cnc1N)c1c(Cl)ccc(F)c1Cl [Crizotinib] + CC(C)CCN1c2nc(Nc3cc(F)c(O)c(F)c3)ncc2N(C)C(=O)C1C [BID1870] (first compound 1 µM, partner dose 1 µM) | 57.5% | 67.2% | 80.4% | 98.8%
28 | CN1CCN(c2ccc3nc(-c4c(N)c5c(F)cccc5[nH]c4=O)[nH]c3c2)CC1 [Dovitinib] + Oc1cc(-c2nc(-c3ccccc3)[nH]c2-c2ccncc2)ccc1Cl [L779450] (first compound 0.5 µM, partner dose 1 µM) | 68.8% | 58.5% | 35.3% | 68.7%
29 | CS(=O)(=O)CCNCc1ccc(-c2ccc3ncnc(Nc4ccc(OCc5cccc(F)c5)c(Cl)c4)c3c2)o1 [lapatinib] + O=C1NC(=O)/C(=C/c2ccc(-c3ccc(F)cc3O)o2)S1 [AS252424] (first compound 4 µM, partner dose 5 µM) | 77.9% | 99.3% | 86.7% | 147%
30 | CNC(=O)c1cc(Oc2ccc(NC(=O)Nc3ccc(Cl)c(C(F)(F)F)c3)cc2)ccn1 [sorafenib] + O=C1NC(=O)/C(=C/c2ccc(-c3ccc(F)cc3O)o2)S1 [AS252424] (first compound 2 µM, partner dose 5 µM) | 106% | 109% | 129% | 108%
31 | CN1CCN(c2ccc3nc(-c4c(N)c5c(F)cccc5[nH]c4=O)[nH]c3c2)CC1 [Dovitinib] + COc1ccc2c(c1)CCC1C2CCC2(C)C(NCCCCCCN3C(=O)C=CC3=O)CCC12 [U73122] (first compound 0.5 µM, partner dose 2 µM) | 76.9% | 71.4% | 39.1% | 67.3%
